{
  "source": "the supplement of paper PMC11417369",
  "note": "The list shows a part of the results.",
  "data": [
    {"test_system": "PF3D7_0420300 AP2 domain 1 (GST-tagged)", "test": "gcPBM binding intensity (ln(normalized median fluorescence intensity)); higher = stronger DNA binding", "summary_of_the_method": "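Binding intensity is defined as the maximum Masliner-normalised natural-log median intensity across replicate spots for either probe orientation. It was measured on an Agilent 4 × 180k array of primer-extended double-stranded 36-bp intergenic genomic probes and negative controls, to which GST-tagged P. falciparum DNA-binding domains made in E. coli were applied for 1 h in 1× PBS with 1% milk, 0.2 mg/ml BSA, 0.5% salmon testes DNA and 0.03% Triton X-100. Detection was by Alexa488 anti-GST antibody and scanning at 488 nm.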", "values": [
      {"sequence": "AAAAAAATCACATAAAATACTTTATTTTATATTATA [GTGCAC_negctrl_site372]", "gcPBM binding intensity (ln)": 8.94},
      {"sequence": "CACACCCACAAAAACACACACAAAGGTGTTCTTATA [CACACA_site1293]", "gcPBM binding intensity (ln)": 9.51},
      {"sequence": "TGTAGTCTGGAGAAACGTACATAGTATCTGGTAACC [XGTACX_site4939]", "gcPBM binding intensity (ln)": 9.22},
      {"sequence": "ATAACATTCATATTCACACAAAAATATACTACATAG [CACACA_site4529]", "gcPBM binding intensity (ln)": 9.38},
      {"sequence": "TATATATATATATATACACACATATATATATTTATA [CACACA_site627]", "gcPBM binding intensity (ln)": 9.39},
      {"sequence": "TATTTATTTTTTTGCACACATATTTTACATTTTAAT [CACACA_site3181]", "gcPBM binding intensity (ln)": 9.76},
      {"sequence": "ATTGAAAATTGTTGCACACATAATAATTAAATATAT [CACACA_site1857]", "gcPBM binding intensity (ln)": 9.33},
      {"sequence": "ATAAAAAAAGGACACACACACATATATATATATATA [CACACA_site5662]", "gcPBM binding intensity (ln)": 9.93},
      {"sequence": "ATATAAAAAGTGTATCGTACATTTACTTATTTTATA [XGTACX_site6249]", "gcPBM binding intensity (ln)": 9.17},
      {"sequence": "AAAATTATTAAATATGTACACACGTACATTTTATAA [CACACA_site8750]", "gcPBM binding intensity (ln)": 9.11},
      {"sequence": "AAATAAATAATAAATAAATAAATAAAATACCAAATA [GTGCAC_negctrl_site620]", "gcPBM binding intensity (ln)": 9.6},
      {"sequence": "ATATATATATATATATGTACATATACACATGTGTGC [XGTACX_site168]", "gcPBM binding intensity (ln)": 9.39},
      {"sequence": "TATAAATATGTGTATACACACCTGATAAAGGTATAT [CACACA_site7283]", "gcPBM binding intensity (ln)": 9.55},
      {"sequence": "TACTTCTTTTTTATTTATTTTACTTTTTATTCTGTA [CACACA_negctrl_site772]", "gcPBM binding intensity (ln)": 9.5},
      {"sequence": "GCTTATGCTCAATATTGTACTTTTTTTATTTATTCA [XGTACX_site8863]", "gcPBM binding intensity (ln)": 9.52},
      {"sequence": "ATTTAATTTTTTTTTAAACACACATTTTTTTATTTA [CACACA_site8880]", "gcPBM binding intensity (ln)": 9.36},
      {"sequence": "TTCAATTATATTCTTTGTACGAATCTTCTATAAATT [XGTACX_site4346]", "gcPBM binding intensity (ln)": 9.11},
      {"sequence": "TATTTTGAAATGGAAAGGATATAGAACTTAAACAAA [CACACA_negctrl_site1530]", "gcPBM binding intensity (ln)": 9.18},
      {"sequence": "TTTATAAAAAGCATAACACACACATGTCAATATATA [CACACA_site8286]", "gcPBM binding intensity (ln)": 9.73},
      {"sequence": "AACATACGACAATACGCACACATATAAGTACATATT [CACACA_site8584]", "gcPBM binding intensity (ln)": 9.61},
      {"sequence": "ATACATTCAAAATATACACACATATATCTATAATAT [CACACA_site6576]", "gcPBM binding intensity (ln)": 9.56},
      {"sequence": "TTTCTTTAGTAGAATGTAAAAAATATAATCTTCTTA [TGCATGCA_negctrl_site298]", "gcPBM binding intensity (ln)": 8.7},
      {"sequence": "TTATGTAGTATAATGAGTACTAAATATAGATATGTT [XGTACX_site6335]", "gcPBM binding intensity (ln)": 9.33},
      {"sequence": "AATATTATAAATGATACACACTTAAAATACAGACAC [CACACA_site8868]", "gcPBM binding intensity (ln)": 9.84},
      {"sequence": "AATTACTTAAATTATTGTACCCTAATGTTAATTTCA [XGTACX_site825]", "gcPBM binding intensity (ln)": 9.3},
      {"sequence": "TTTTATATCTACCTTTGTACATATTTATTTTTTTTA [XGTACX_site7872]", "gcPBM binding intensity (ln)": 9.43},
      {"sequence": "TTCATAAAAAATGTAGTGCATTGAATAAAATTACAT [GTGCAC_site9393]", "gcPBM binding intensity (ln)": 9.14},
      {"sequence": "TAAATTTTTTTTTTTTGTACACAAAAATATAATATT [XGTACX_site8151]", "gcPBM binding intensity (ln)": 8.87},
      {"sequence": "TTAATTTTGGTAAATGCATGTAATTAAAAATAAAAA [TGCATGCA_site234]", "gcPBM binding intensity (ln)": 9.05},
      {"sequence": "ATATTGAAATTAAAAAAATATATGAACAAATGATGA [CACACA_negctrl_site602]", "gcPBM binding intensity (ln)": 9.4},
      {"sequence": "TATAACAAGTAATGGTGTACATTATATTATGTAATA [XGTACX_site2761]", "gcPBM binding intensity (ln)": 9.18},
      {"sequence": "CATATGCGTCTTGCCTTGCACACTTTTATGAAAAAA [CACACA_site2055]", "gcPBM binding intensity (ln)": 9.22},
      {"sequence": "TAATACTTAAAATGTTGTACATAATAATTTTATATT [XGTACX_site5403]", "gcPBM binding intensity (ln)": 9.08},
      {"sequence": "TATATATATATATATACATGCATTTCTCATGTACAT [TGCATGCA_site621]", "gcPBM binding intensity (ln)": 9.14},
      {"sequence": "GTCATCATAATCTATTGTACAAAAATTTATACAGAT [XGTACX_site1059]", "gcPBM binding intensity (ln)": 9.18},
      {"sequence": "TATAAAAATAAGTATACACACAAAATGCGTAACTTT [CACACA_site1295]", "gcPBM binding intensity (ln)": 9.3},
      {"sequence": "TACATTAAACGAATAGTGCAAGAAGTATTCGTATAA [GTGCAC_site9939]", "gcPBM binding intensity (ln)": 9.32},
      {"sequence": "ATAAATACATTAAAATGTACATAAAAATATTACTGG [XGTACX_site1484]", "gcPBM binding intensity (ln)": 9.2},
      {"sequence": "TTACAAAACCGATGTTGTACATTCAATAGATAATGT [XGTACX_site3806]", "gcPBM binding intensity (ln)": 9.19},
      {"sequence": "ATATACCATATGCATGGTACACATTTACAACAAAAA [XGTACX_site3142]", "gcPBM binding intensity (ln)": 9.21},
      {"sequence": "AATGTATAAAAGTTTTGTACATATTCTCACACATAT [XGTACX_site965]", "gcPBM binding intensity (ln)": 9.38},
      {"sequence": "TAGTTGTGAGTTACATGTACATGTATTTATTTTTTA [XGTACX_site7088]", "gcPBM binding intensity (ln)": 9.51},
      {"sequence": "ATAACGTAAACAATGTGGACACATACATAAATATAT [XGTACX_site707]", "gcPBM binding intensity (ln)": 9.47},
      {"sequence": "GATAACAATATGTGTACACATTTATATCTCCACATA [CACACA_site5442]", "gcPBM binding intensity (ln)": 9.45},
      {"sequence": "TTTATTAAATAAAGCACACACAACAACTTTTCACAA [CACACA_site4132]", "gcPBM binding intensity (ln)": 9.68},
      {"sequence": "TACATAAACATTTATACACACATTATATATACATAT [CACACA_site8028]", "gcPBM binding intensity (ln)": 9.64},
      {"sequence": "TGTGCTCGCTATTACACACTCATTGGGATAAAATTG [CACACA_site2029]", "gcPBM binding intensity (ln)": 9.26},
      {"sequence": "TGGCTTATTCAGAAATGTACACATATAAATATATAT [XGTACX_site3765]", "gcPBM binding intensity (ln)": 9.19},
      {"sequence": "AAAATAATATATGTATGTACACAATTATTTATAAGT [XGTACX_site7267]", "gcPBM binding intensity (ln)": 9.35},
      {"sequence": "TTTCTTTTAATTATCCGTACACAAACAATAAAATAA [XGTACX_site7841]", "gcPBM binding intensity (ln)": 9.04},
      {"sequence": "TGAATAAATAAGATACGTACACACATATACAAAATA [XGTACX_site7758]", "gcPBM binding intensity (ln)": 9.8},
      {"sequence": "AAAAAAAAAAAAAACACACACACACGCAAATACATA [CACACA_site6474]", "gcPBM binding intensity (ln)": 10.2},
      {"sequence": "TCCTTAAATATAAAGGTGCTATGCAGACCTTATGTT [GTGCAC_site9472]", "gcPBM binding intensity (ln)": 8.91},
      {"sequence": "ATATAAGTACGGCATGCATGCACATTTTTTTATTCC [TGCATGCA_site101]", "gcPBM binding intensity (ln)": 9.41},
      {"sequence": "TTATAAATTCAATGTACTACACAAAATGAATTTAAT [XGTACX_site6683]", "gcPBM binding intensity (ln)": 9.09},
      {"sequence": "TACAGACATAGACACACACACACGCATAAAAAAAAA [CACACA_site6820]", "gcPBM binding intensity (ln)": 10.1}
    ]}
  ]
}
